From paper PMC3656144
No constants are given. Whether binding was seen depends on the method and setting. For part of these data: In cells and extracts the contact can be indirect. Some entries that bind do so weakly or less than the wild type. Tags and fused reporters may be left off the sequences shown. One block for each molecule: values may come before it.

Protein sequences, listed by entry. Tags and fused reporters are not part of them.
UniProt P34574: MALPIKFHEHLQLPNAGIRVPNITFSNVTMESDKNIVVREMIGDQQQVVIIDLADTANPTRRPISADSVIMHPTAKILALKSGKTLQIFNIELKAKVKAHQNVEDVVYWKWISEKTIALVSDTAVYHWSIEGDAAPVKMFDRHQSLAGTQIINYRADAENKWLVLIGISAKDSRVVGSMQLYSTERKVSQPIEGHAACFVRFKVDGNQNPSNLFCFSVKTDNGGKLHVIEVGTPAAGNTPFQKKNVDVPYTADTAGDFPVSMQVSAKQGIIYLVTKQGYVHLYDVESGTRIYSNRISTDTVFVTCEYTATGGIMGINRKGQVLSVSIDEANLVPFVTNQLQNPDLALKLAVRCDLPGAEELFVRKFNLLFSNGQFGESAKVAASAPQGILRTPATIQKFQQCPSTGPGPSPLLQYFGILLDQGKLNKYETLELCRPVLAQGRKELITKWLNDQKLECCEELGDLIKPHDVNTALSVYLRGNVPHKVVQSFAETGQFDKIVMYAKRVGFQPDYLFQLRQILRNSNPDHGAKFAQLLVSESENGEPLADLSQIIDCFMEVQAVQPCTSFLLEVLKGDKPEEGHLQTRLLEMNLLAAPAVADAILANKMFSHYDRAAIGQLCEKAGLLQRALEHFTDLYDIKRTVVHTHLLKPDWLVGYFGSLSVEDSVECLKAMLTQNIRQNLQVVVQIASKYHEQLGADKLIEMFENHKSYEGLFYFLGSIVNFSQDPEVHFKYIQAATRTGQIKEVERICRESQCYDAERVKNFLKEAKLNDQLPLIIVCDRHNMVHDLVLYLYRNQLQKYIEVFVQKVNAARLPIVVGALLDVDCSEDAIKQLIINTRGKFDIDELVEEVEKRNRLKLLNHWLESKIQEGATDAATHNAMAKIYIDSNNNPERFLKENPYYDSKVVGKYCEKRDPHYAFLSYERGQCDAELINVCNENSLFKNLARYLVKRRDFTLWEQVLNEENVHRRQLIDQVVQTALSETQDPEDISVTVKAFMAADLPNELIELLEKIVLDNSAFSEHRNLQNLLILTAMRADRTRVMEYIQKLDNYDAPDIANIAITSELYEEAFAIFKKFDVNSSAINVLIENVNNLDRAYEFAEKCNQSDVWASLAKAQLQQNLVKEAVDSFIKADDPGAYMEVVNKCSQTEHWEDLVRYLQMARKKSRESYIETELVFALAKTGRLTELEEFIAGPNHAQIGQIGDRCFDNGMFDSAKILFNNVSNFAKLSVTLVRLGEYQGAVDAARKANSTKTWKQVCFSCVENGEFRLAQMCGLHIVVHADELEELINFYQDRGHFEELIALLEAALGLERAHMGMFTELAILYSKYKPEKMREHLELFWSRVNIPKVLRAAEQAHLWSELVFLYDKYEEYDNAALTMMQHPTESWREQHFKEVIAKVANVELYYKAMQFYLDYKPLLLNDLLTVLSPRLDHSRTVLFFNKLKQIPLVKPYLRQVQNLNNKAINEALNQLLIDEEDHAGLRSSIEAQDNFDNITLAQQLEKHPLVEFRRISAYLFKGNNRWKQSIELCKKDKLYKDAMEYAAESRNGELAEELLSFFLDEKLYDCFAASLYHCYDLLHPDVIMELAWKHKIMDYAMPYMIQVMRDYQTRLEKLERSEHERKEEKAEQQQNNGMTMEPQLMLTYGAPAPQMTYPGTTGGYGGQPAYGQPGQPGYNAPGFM

Assays:
[1] = target: T1, LST-4::GFP (C. elegans) (UniProt Q8I4E2); test: co-IP; IP with GFP antibody from lysates of animals co-expressing an mCherry fusion and a GFP fusion (control: mCherry fusion alone); blots with mCherry and GFP antibodies
T1 sequence: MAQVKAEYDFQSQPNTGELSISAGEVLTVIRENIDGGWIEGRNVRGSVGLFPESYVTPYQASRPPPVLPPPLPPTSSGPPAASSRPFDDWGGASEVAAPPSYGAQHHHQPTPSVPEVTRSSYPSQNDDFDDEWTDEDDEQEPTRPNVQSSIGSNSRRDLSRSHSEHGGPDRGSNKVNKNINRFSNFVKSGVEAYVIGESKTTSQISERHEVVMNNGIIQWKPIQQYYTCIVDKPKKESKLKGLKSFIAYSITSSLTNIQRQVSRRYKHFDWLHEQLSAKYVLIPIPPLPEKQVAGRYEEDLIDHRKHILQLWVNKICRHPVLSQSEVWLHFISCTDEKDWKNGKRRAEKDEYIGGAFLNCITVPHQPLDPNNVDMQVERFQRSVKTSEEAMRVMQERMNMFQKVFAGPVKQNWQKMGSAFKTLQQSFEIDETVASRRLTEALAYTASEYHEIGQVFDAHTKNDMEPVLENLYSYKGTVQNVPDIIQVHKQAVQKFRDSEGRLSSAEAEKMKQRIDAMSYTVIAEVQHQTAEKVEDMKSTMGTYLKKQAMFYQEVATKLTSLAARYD

[2] = target: T2, DYN-1::GFP (C. elegans) (UniProt P39055); test: as above
T2 sequence: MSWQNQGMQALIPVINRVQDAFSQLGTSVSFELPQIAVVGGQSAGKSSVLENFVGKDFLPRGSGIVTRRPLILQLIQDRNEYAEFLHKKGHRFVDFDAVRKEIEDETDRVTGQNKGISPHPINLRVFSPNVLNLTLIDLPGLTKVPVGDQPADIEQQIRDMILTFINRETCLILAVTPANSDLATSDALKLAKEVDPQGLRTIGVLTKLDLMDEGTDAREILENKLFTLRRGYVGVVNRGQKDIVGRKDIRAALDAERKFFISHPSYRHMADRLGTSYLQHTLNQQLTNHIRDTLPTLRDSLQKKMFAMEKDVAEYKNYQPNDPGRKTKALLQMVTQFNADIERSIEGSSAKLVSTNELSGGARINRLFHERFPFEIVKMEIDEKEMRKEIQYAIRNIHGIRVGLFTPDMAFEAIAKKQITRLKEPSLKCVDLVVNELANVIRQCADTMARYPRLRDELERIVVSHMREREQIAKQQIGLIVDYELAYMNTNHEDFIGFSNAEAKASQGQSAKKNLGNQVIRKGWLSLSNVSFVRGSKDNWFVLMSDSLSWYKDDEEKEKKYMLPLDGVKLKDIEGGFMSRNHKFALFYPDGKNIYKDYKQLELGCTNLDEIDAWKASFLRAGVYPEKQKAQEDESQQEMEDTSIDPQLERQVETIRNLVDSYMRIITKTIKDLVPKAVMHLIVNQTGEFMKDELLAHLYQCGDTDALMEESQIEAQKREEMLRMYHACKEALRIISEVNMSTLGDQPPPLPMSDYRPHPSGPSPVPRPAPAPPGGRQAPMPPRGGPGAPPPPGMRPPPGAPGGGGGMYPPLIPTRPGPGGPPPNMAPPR

[3] = target: T3, GST-fused intracellular region of CED-1 (CED-1C, amino acids 933–1111) (C. elegans) (UniProt Q9XWD6); test: pull-down; GST or GST fusion (3 µg) immobilized on glutathione-Sepharose beads, incubated with purified His6-tagged protein at 4°C for ≥4 h, washed extensively; immunoblot with anti-His6 antibody; both purified
T3 sequence: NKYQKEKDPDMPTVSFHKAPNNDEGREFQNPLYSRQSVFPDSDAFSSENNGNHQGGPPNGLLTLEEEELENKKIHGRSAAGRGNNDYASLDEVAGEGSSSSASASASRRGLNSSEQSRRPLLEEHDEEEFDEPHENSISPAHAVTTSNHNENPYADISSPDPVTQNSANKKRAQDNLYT

[4] = target: T4, GST-fused CED-6 (C. elegans) (UniProt O76337); test: as above
T4 sequence: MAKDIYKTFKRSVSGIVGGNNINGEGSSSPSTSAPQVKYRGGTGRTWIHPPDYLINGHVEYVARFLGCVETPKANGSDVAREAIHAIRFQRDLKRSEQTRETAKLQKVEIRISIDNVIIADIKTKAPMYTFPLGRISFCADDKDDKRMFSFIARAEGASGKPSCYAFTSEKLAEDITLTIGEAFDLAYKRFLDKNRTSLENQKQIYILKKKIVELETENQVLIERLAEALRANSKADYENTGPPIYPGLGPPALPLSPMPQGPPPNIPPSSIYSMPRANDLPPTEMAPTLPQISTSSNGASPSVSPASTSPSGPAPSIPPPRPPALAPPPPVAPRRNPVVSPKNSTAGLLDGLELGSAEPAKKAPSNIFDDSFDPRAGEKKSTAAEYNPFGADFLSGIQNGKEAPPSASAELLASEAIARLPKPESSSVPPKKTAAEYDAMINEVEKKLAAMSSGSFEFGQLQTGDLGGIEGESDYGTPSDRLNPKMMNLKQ

[5] = target: T5, GST-fused DYN-1 (C. elegans) (UniProt P39055); test: as above
T5 sequence: T2 sequence

[6] = target: T6, endogenous CED-6 (C. elegans (endogenous in whole animal lysate)) (UniProt O76337); test: co-IP; IP of endogenous CED-1 or CED-6 with CED-1C or CED-6 antibody from whole cell lysates of N2 or GFP-fusion-expressing animals (controls: ced-1(e1735), ced-1 RNAi, ced-6 RNAi); blots with CED-1C, CED-6 and GFP antibodies
T6 sequence: T4 sequence

[7] = target: T7, LST-4::mCherry (C. elegans) (UniProt Q8I4E2); test: co-IP; IP with mCherry antibody from lysates of animals expressing both LST-4::mCherry and DYN-1::GFP (control: DYN-1::GFP alone); blots with GFP and mCherry antibodies
T7 sequence: T1 sequence

Molecule: mCherry::CHC-1 (from UniProt P34574 1-1681)
- binding [1]: binds
- binding [2]: binds

B1: His6-tagged recombinant LST-4 (protein, UniProt Q8I4E2 1-566)
chain: T1 sequence
- binding [3]: no binding
- binding [4]: no binding
- binding [5]: binds

Continued, values first:

- binding [6]: no binding
- binding [7]: binds
B2: DYN-1::GFP (protein, UniProt P39055 1-830)
chain: T2 sequence

- binding [3]: no binding
- binding [4]: no binding
B3: DYN-1His6 (protein, UniProt P39055 1-830)
chain: T2 sequence
